# According to PubChem BioAssay AID624296 (National Center for Advancing Translational Sciences (NCATS), 2012):
# Where “and” joins values, the source holds several entries; their conditions need not be identical. Identical values can stand only once. The whole screen tested about 350,000 compounds, of which about 9,900 (2.8%) were called active. The shares of active, inactive and inconclusive entries below differ from those in the screen. The call rests on the fitted dose curve; in most records, active means well fitted activation curve with a large enough effect; inconclusive means small, poorly fitted or top-dose-only effect; inactive means no such curve, though single readings can be large or run the other way. Where the call is inconclusive, the potency comes from a doubtful curve fit.
# Assay: A quantitative high throughput screen for small molecules that induce DNA re-replication in MCF 10a normal breast cells. Further: nearly all actives have a fitted effect of over 50% in size. On activity, positive = re-replication: % of control where 0% means no effect.
# Details: MCF 10A DNA re-replication, Hoechst nuclear intensity, 48 h; activity, positive = re-replication: at 46.1 µM (top of the series)
# Potency means the concentration at half of the fitted maximal effect; tags describe the fitted curve by direction and shape.
Compound,Potency,"activity, positive = re-replication"
CCCCn1c(O)c(C(CC)=Nc2ccc(OC)cc2OC)c(=O)[nH]c1=O,"inconclusive: 23.1 µM [activator, single point]",
CCN(CC)c1ccc(CN(C)CCc2ccc(OC)c(OC)c2)cc1,inactive,
C=CCn1c(O)c(C(C)=NCCN2CCN(C(=S)NC)CC2)c(=O)[nH]c1=O,"inconclusive: 0.651 µM [activator, partial curve, poor fit]",
O=C(Nc1ccccn1)NC12CC3CC(CC(C3)C1)C2,"inconclusive: 11.6 µM [activator, partial curve, poor fit]",
Cc1c(N=Cc2c(O)n(Cc3ccccc3)c(=O)[nH]c2=O)c(=O)n(-c2ccccc2)n1C,inactive,
CC(=O)OC(CC(=O)O)C[N+](C)(C)C (configuration not stated),"inconclusive: 16.4 µM [activator, single point]",
Fc1ccccc1CNC1CN2CCC1CC2 (configuration not stated),"inconclusive: 32.6 µM [activator, partial curve, poor fit]",
C=C1CC[C@H](O)C/C1=C/C=C1\CCC[C@]2(C)[C@@H]([C@H](C)CCCC(C)C)CC[C@@H]12,active: 23.7 µM,
O=C(O)CCn1cc(C=C2C(=O)NC(=S)NC2=O)c(-c2cccc(Cl)c2)n1,"inconclusive: 9.2 µM [activator, partial curve]",
Clc1ccc(CCC(Cn2ccnc2)Sc2c(Cl)cccc2Cl)cc1 (configuration not stated),"inconclusive: 9.2 µM [activator, single point]",
COC(/C(C)=C/C=C/C(C)=C/c1coc(C)n1)C(C)C1CC(O)C2(C)OC2C=CC(C)C2CC(CC(=O)O2)CC2OC2C(=O)O1 (configuration not stated),,inconclusive: 29.9% [activator]
COc1ccc([C@H]2CC(=O)C=C(c3ccc4c5c(cccc35)CC4)C2)cc1,"inconclusive: 29.1 µM [activator, single point]",
CCCc1nc2ccccc2c(=O)n1-c1ccc(O)cc1,"inconclusive: 6.51 µM [activator, full curve, poor fit]",
Fc1cccc(C2NCCc3[nH]cnc32)c1 (configuration not stated),inactive,
O=C1NC(=O)N(c2ccccc2)C(=O)/C1=C/c1ccc([N+](=O)[O-])s1,"inconclusive: 23.1 µM [activator, partial curve, poor fit]",
Nc1c(C(=O)OCc2ccccc2)c2nc3ccccc3nc2n1Cc1cccs1,active: 6.51 µM,
CC(C)(C#CC(=O)O)OOC(c1ccccc1)(c1ccccc1)c1ccccc1,"inconclusive: 29.1 µM [activator, single point]",
COC(=O)C1=C(C(=O)OC)C2OC1c1cc3ccccc3cc12,"inconclusive: 23.1 µM [activator, single point]",
O=C1NC(=O)N(c2ccccc2)C(=O)/C1=C/C=C/c1ccco1,"inconclusive: 3.66 µM [activator, partial curve, poor fit]",
Nc1c2c(nc3sc4c(c13)CCCCC4)CCCC2,"inconclusive: 20.6 µM [activator, single point]",
O=C1C2CCN(CC2)C1Cc1ccc(OCCOc2ccccc2)cc1 (configuration not stated),"inconclusive: 25.9 µM [activator, partial curve, poor fit]",

Compound,Potency,"activity, positive = re-replication"
Oc1c(Cl)cc(Cl)cc1CN1CCN(Cc2ccccc2)CC1,"inconclusive: 1.84 µM [activator, partial curve, poor fit]",
Cc1ccc(S(=O)(=O)N2CN3CCN(C3)C2)cc1,inactive,
O=c1[nH]c(CN2CC=C(c3ccccc3)CC2)nc2scc(-c3cccs3)c12,active: 25.9 µM,
C[C@]12CC[C@H](O)CC1=CCC1C2CC[C@@]2(C)C1C[C@@H]1CC(=O)O[C@@H]12 (some centres not stated),"inconclusive: 18.4 µM [activator, single point]",
COC(=O)C1=CO[C@@H](C)[C@@H]2CN3CC[C@]4(C(=O)Nc5ccccc54)[C@@H]3C[C@H]12,"inconclusive: 29.1 µM [activator, single point]",
Cc1c2ccncc2c(C)c2c1[nH]c1ccccc12,active: 5.8 µM,
CC[C@@]1(O)C(=O)OCc2c1cc1n(c2=O)Cc2cc3c(NC(=O)CN)cccc3nc2-1,"inconclusive: 2.06 µM [activator, partial curve, poor fit]",
O=C(NCc1cccs1)c1ccc(Br)o1,"inconclusive: 0.326 µM [activator, partial curve, poor fit]",
CC(C)c1ccccc1OCC(=O)N1CCCN(C)CC1,inactive,
CC(=O)c1cn(CC(=O)NCCc2c[nH]c3ccccc23)c2ccccc12,"inconclusive: 32.6 µM [activator, partial curve, poor fit]",
O=P(O)(O)COc1ccccc1O,"inconclusive: 20.6 µM [activator, partial curve, poor fit]",
C=Cn1ccnc1P(=S)(c1nccn1C=C)c1nccn1C=C,inactive,
N=C1c2ccccc2CN1c1cccc([N+](=O)[O-])c1,inactive,
CN1CCN(C(=O)COc2ccc(S(=O)(=O)Nc3ccc(F)cc3)cc2)CC1,"inconclusive: 20.6 µM [activator, partial curve, poor fit]",
CC(=O)O[C@H]1C[C@H](O[C@H]2[C@@H](O)CC(O[C@H]3[C@@H](O)C[C@H](O[C@H]4CC[C@@]5(C)[C@H](CC[C@@H]6[C@@H]5CC[C@]5(C)[C@@H](C7=CC(=O)OC7)CC[C@]65O)C4)O[C@@H]3C)O[C@@H]2C)O[C@H](C)[C@H]1O[C@@H]1O[C@H](CO)[C@@H](O)[C@H](O)[C@H]1O (some centres not stated),"inconclusive: 0.0668 µM [activator, full curve, poor fit]",
CCOC(=O)C(O)(c1ccc(NC(=O)c2ccc(Cl)c(Cl)c2)cc1)C(F)(F)F (configuration not stated),"inconclusive: 23.1 µM [activator, single point]",
CC1(C)CC(CCNCc2ccc3c(c2)OCO3)(Cc2ccccc2)CCO1 (configuration not stated),"inconclusive: 10 µM [activator, partial curve, poor fit]",
O=C(CN1CCN(c2ccccc2F)CC1)Nc1cccnc1Cl,"inconclusive: 10 µM [activator, partial curve, poor fit]",
O=C1NC(=O)N(CCC2=CCCCC2)C(=O)/C1=C/c1cccs1,"inconclusive: 29.1 µM [activator, single point]",
O=C(Nc1ccc(Cl)cc1)Nc1ccc(Cl)c(Cl)c1,"inconclusive: 3.35 µM [activator, full curve] and inconclusive: 4.61 µM [activator, partial curve, poor fit]",
O=C(Cc1ccccc1)N1CCN(C/C=C/c2ccccc2)CC1,inactive,

Compound,Potency,"activity, positive = re-replication"
COc1nc(NC(C)C)nc(N(C#N)CN2C(=O)c3ccccc3S2(=O)=O)n1,"inconclusive: 29.1 µM [activator, single point]",
O=C(O)COc1ccccc1,"inconclusive: 0.231 µM [activator, full curve, poor fit]",
COc1cc(CNCCc2ccc3c(c2)OCO3)ccc1O,"inconclusive: 4.61 µM [activator, single point]",
CC/C(=N\Nc1ccccc1)c1c(O)n(-c2ccccc2)c(=O)[nH]c1=O,"inconclusive: 29.1 µM [activator, partial curve, poor fit]",
CC(=O)Oc1ccccc1C(=O)Nc1ncc([N+](=O)[O-])s1,"inconclusive: 13.3 µM [activator, full curve]",
COC(=O)C(O)(c1ccc(NC(=S)NC(=O)c2ccccc2)cc1)C(F)(F)F (configuration not stated),"inconclusive: 14.6 µM [activator, partial curve, poor fit]",
CCCCn1c(=O)c(C(=O)Nc2ccccc2S(N)(=O)=O)c(O)c2ccccc21,"inconclusive: 18.4 µM [activator, single point]",
COc1ccc(-n2c(/C=C/c3ccc(O)c(OC)c3)nc3ccccc3c2=O)cc1,"inconclusive: 25.9 µM [activator, single point]",
COc1ccc(CNS(=O)(=O)c2cc3c(cc2C)N(C)CCO3)cc1,"inconclusive: 23.1 µM [activator, single point]",
N#CC[N+]1(CCCNP2(=O)C=C(c3ccccc3)OC(c3ccccc3)=C2)CCOCC1,"inconclusive: 0.731 µM [activator, full curve, poor fit]",
COc1cccc(C(=O)C2CCCN(Cc3ccc(F)cc3)C2)c1 (configuration not stated),inactive,
CCCCc1ccc2[nH]cc(CCN)c2c1,inactive,
CC(CCC(=O)O)C1CCC2C3C(=O)C[C@@H]4CC(=O)CC[C@@]4(C)C3CC(=O)[C@]12C (some centres not stated),inactive,
COc1cc(/C=C2\C(=O)NC(=O)N(c3ccccc3)C2=O)c([N+](=O)[O-])cc1OC,inactive,
CC(=O)OC1CC(OC2C(O)CC(OC3C(O)CC(OC4CCC5(C)C(CCC6C5CC(O)C5(C)C(C7=CC(=O)OC7)CCC65O)C4)OC3C)OC2C)OC(C)C1OC1OC(CO)C(O)C(O)C1O (configuration not stated),active: 0.184 µM,
CCC(=NCCCN(CC)CC)c1c(O)n(-c2ccccc2)c(=O)[nH]c1=O,inactive,
CCCCn1c(=O)c(C(=O)NCc2ccncc2)c(O)c2ccccc21,"inconclusive: 14.1 µM [activator, single point]",
COC(=O)C1=C(c2ccc(F)cc2OCc2ccccc2)C[C@@H]2CC[C@H]1N2C(=O)NCc1ccccc1Cl,"inconclusive: 0.58 µM [activator, full curve, poor fit]",
Oc1ccc2c3c1OC1c4[nH]c5ccccc5c4C[C@@]4(O)C(C2)N(CC2CC2)CC[C@]314 (some centres not stated),"inconclusive: 0.0651 µM [activator, full curve, poor fit]",
COCCCNC(=O)c1c(NC(=O)c2ccccc2)n(Cc2ccccc2)c2nc3ccccc3nc12,"inconclusive: 0.461 µM [activator, full curve, poor fit]",
